For some assays here: Shown are results outside the selection of strong results, which stands elsewhere. Only a part is listed here, and it is no random draw.
System: T1, MEK1
T1 construct: gene MAP2K1
Details: concentration: 1 μM,replicates: in singlicate; n = 1
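Further: KINOMEscan kinase panel screen.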

Q: Which “%Inh” value does the source give for O=C1NC(=O)C(c2ccc(Cl)cc2)=C1Nc1cccc(C(=O)O)c1 [SB-360737] here?
A: 28%

Q: Which “%Inh” value does the source give for COc1cccc(C2=C(Nc3ccc(SC)cc3)C(=O)NC2=O)c1 [SB-331032] here?
A: 23%

Q: With O=C1NC(=O)C(c2ccccc2Cl)=C1Nc1cccc(C(=O)O)c1 [SB-390526] as the compound, how does the “%Inh” value read?
A: 0%

Q: Which “%Inh” value does the source give for O=C1NC(=O)C(c2ccc(Cl)cc2)=C1Nc1cccc(O)c1 [SB-333613] here?
A: 16%

Q: Which “%Inh” value does the source give for CS(=O)(=O)c1ccccc1-c1nc(-c2ccc(F)cc2)c(-c2ccncc2)[nH]1 [SB-213663] here?
A: 0%

Q: Cc1cc(C)cc(Oc2nccc(-c3c(-c4ccc(F)cc4)ncn3C3CCNCC3)n2)c1.O=C(O)C(F)(F)F.O=C(O)C(F)(F)F.O=C(O)C(F)(F)F [SB-284851] was tested. Which “%Inh” value did it give?
A: 0%

Q: For O=C1NC(=O)C(c2ccccc2Cl)=C1Nc1ccccc1 [SB-376715], which “%Inh” value is on record?
A: 34%

Q: Which “%Inh” value does the source give for COc1ccc(C2=C(Nc3cccc(Cl)c3)C(=O)NC2=O)cc1 [SB-326892] here?
A: 0%

Q: For O=C(O)c1ccc(-c2nc(-c3ccc(F)cc3)c(-c3ccncc3)[nH]2)cc1 [SB-202620], which “%Inh” value is on record?
A: 25%

Q: Which “%Inh” value does the source give for CSc1ccc(NC2=C(c3cccc(Cl)c3)C(=O)NC2=O)cc1 [SB-341528] here?
A: 0%

Q: How did the “%Inh” value turn out when Cc1ccc(C)c(Oc2nccc(-c3c(-c4ccc(F)cc4)ncn3C3CCNCC3)n2)c1.O=C(O)C(F)(F)F.O=C(O)C(F)(F)F.O=C(O)C(F)(F)F [SB-284852] was run?
A: 4%

Q: With O=C1NC(=O)c2c1c(-c1ccccc1)cc1[nH]c3ccc(O)cc3c21 as the compound, how does the “%Inh” value read?
A: 61%

Q: How did the “%Inh” value turn out when O=C1NC(=O)C(c2ccc(Cl)cc2)=C1Nc1ccc(O)c(Cl)c1 [SB-405367] was run?
A: 0%

Q: With O=C1NC(=O)C(c2ccccc2)=C1Nc1cc(Cl)c(O)c(Cl)c1 [SB-390530] as the compound, how does the “%Inh” value read?
A: 3%

Q: O=C1NC(=O)C(c2ccc(Cl)cc2)=C1Nc1ccccc1 [SB-317661] was tested. Which “%Inh” value did it give?
A: 21%

Q: For O=C1NC(=O)C(c2ccccc2)=C1Nc1ccc(Cl)c(C(=O)O)c1 [SB-390532], which “%Inh” value is on record?
A: 0%

System: T2, MEK2
T2 construct: gene MAP2K2
Details: concentration: 1 μM,replicates: in singlicate; n = 1

Q: How did the “%Inh” value turn out when O=C1NC(=O)C(c2ccc(Cl)cc2)=C1Nc1cccc(C(=O)O)c1 [SB-360737] was run?
A: 0%

Q: With COc1cccc(C2=C(Nc3ccc(SC)cc3)C(=O)NC2=O)c1 [SB-331032] as the compound, how does the “%Inh” value read?
A: 22%

Q: How did the “%Inh” value turn out when O=C1NC(=O)C(c2ccccc2Cl)=C1Nc1cccc(C(=O)O)c1 [SB-390526] was run?
A: 7%

Q: For O=C1NC(=O)C(c2ccc(Cl)cc2)=C1Nc1cccc(O)c1 [SB-333613], which “%Inh” value is on record?
A: 10%

Q: For CS(=O)(=O)c1ccccc1-c1nc(-c2ccc(F)cc2)c(-c2ccncc2)[nH]1 [SB-213663], which “%Inh” value is on record?
A: 0%

Q: For Cc1cc(C)cc(Oc2nccc(-c3c(-c4ccc(F)cc4)ncn3C3CCNCC3)n2)c1.O=C(O)C(F)(F)F.O=C(O)C(F)(F)F.O=C(O)C(F)(F)F [SB-284851], which “%Inh” value is on record?
A: 23%

Q: How did the “%Inh” value turn out when O=C1NC(=O)C(c2ccccc2Cl)=C1Nc1ccccc1 [SB-376715] was run?
A: 13%

Q: With COc1ccc(C2=C(Nc3cccc(Cl)c3)C(=O)NC2=O)cc1 [SB-326892] as the compound, how does the “%Inh” value read?
A: 13%

Q: How did the “%Inh” value turn out when O=C(O)c1ccc(-c2nc(-c3ccc(F)cc3)c(-c3ccncc3)[nH]2)cc1 [SB-202620] was run?
A: 48%

Q: Which “%Inh” value does the source give for CSc1ccc(NC2=C(c3cccc(Cl)c3)C(=O)NC2=O)cc1 [SB-341528] here?
A: 6%

Q: With Cc1ccc(C)c(Oc2nccc(-c3c(-c4ccc(F)cc4)ncn3C3CCNCC3)n2)c1.O=C(O)C(F)(F)F.O=C(O)C(F)(F)F.O=C(O)C(F)(F)F [SB-284852] as the compound, how does the “%Inh” value read?
A: 39%

Q: Which “%Inh” value does the source give for O=C1NC(=O)c2c1c(-c1ccccc1)cc1[nH]c3ccc(O)cc3c21 here?
A: 59%

Q: For O=C1NC(=O)C(c2ccc(Cl)cc2)=C1Nc1ccc(O)c(Cl)c1 [SB-405367], which “%Inh” value is on record?
A: 20%

Q: O=C1NC(=O)C(c2ccccc2)=C1Nc1cc(Cl)c(O)c(Cl)c1 [SB-390530] was tested. Which “%Inh” value did it give?
A: 0%

Q: For O=C1NC(=O)C(c2ccc(Cl)cc2)=C1Nc1ccccc1 [SB-317661], which “%Inh” value is on record?
A: 45%

Q: For O=C1NC(=O)C(c2ccccc2)=C1Nc1ccc(Cl)c(C(=O)O)c1 [SB-390532], which “%Inh” value is on record?
A: 0%
